Results on 22 molecules are retold here after publication PMC12136788.

Some of the results follow.

T1: UNK ZnF1-3 (human, UniProt Q9C0B0 31-174)
T1 sequence: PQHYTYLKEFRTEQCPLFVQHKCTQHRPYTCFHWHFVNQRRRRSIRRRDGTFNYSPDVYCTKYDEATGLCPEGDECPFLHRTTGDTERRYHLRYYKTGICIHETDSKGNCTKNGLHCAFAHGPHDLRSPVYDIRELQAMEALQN

B1: chr12:4461469:4461470:+_ENSG00000078237_ENST00000179259|hu_hu|FALSE|FALSE (ssRNA)
RNA: GGGAGUUCUACAGUCCGACGAUCCUGUUCUUUUUGAUCCGCUUCUUUCAGGAUUAGUUGACAAAGAAAUUCAAAAAAGUCUAUUCCACGCAUUUUCACCUGGUCCAGCGUCUCUCCUCCGGGCGGUGUAAACACAGGGCACUCCAACAGAGGAUUGAGCAUCA
B2: chr2:169732673:169732674:-_ENSG00000152253_ENST00000282074|hu_hu|FALSE|FALSE (ssRNA)
RNA: GGGAGUUCUACAGUCCGACGAUCAUACAAGUCUGCAGAUUUCUGCAGCCUUUUCAACCUCUCUGCAUUCGCUUUAUUAGCAGUAGAAAUAGUUUCCUUCUUCCUAGAAUAUUCUUCCUUAAGAUCCUGGAUAUUUGCAGUCAGCAACAGAGGAUUGAGCAUCA
B3: chr3:10015032:10015033:+_ENSMUSG00000027533_ENSMUST00000029046|mus_mus|mus_mus_mus_hu_True|48_98 (ssRNA)
RNA: GGGAGUUCUACAGUCCGACGAUCGUUUUUACCAUCACACGUAAUGAUACAAUCUGGCUUGGCCAUUGCGCCCAUUUUUCGCAAAGCCAGUCCUACUCCUAGCUCCUUCAUGUAUUCAUCAAAGCCUUUGCUGUCCACCAGGCGCAACAGAGGAUUGAGCAUCA
B4: 46722910_46723030_89_CDS_ENSG00000069329_ENST00000568784|human|control|control (ssRNA)
RNA: GGGAGUUCUACAGUCCGACGAUCCCAAAUCGGGCUGGUCUUAAUCCCGAACGGUCUGUGGGGCCCCUUCUCCACUCGCUGGAGUGCGGGGCGGUGGGAGAGAGCAGGGGCUACAAGGAGGGUCGACCCAGGUGCCACUGCCCCCAACAGAGGAUUGAGCAUCA
B5: chr3:179287964:179287965:+_ENSG00000136518_ENST00000429709|hu_hu|hu_hu_hu_mus_True|18_58 (ssRNA)
RNA: GGGAGUUCUACAGUCCGACGAUCCUUGAGUGGUGAGAUGGCCUCCAUGUUCUCCCUGGGCACGCGGAGGGCAUUGGUAUCUAUGUAGUAGGUGGGCCCGCCCUGCUUGCCUUUGUCGCCAUCUAUUUCCAUCAUUGUACUUCCCAACAGAGGAUUGAGCAUCA
B6: chr6:41757443:41757444:+_ENSG00000214736_ENST00000398881|hu_mus|hu_hu_hu_mus_False|58_68 (ssRNA)
RNA: GGGAGUUCUACAGUCCGACGAUCGAACCGUGCAGAGGCAACAUCUCAGCCGACACUGGGGGAUGGGGGAACAAAAGGAAACUAGGCAGGCAAGGAGAGGGAGUCAACUUCAGCUGCCACUCAGGUAGGAUCUUGUGGUCACAGCAACAGAGGAUUGAGCAUCA
B7: chrX:101156880:101156881:-_ENSMUSG00000056537_ENSMUST00000070705|mus_mus|motif|central (ssRNA)
RNA: GGGAGUUCUACAGUCCGACGAUCGAAUAUGGUCCAUUCUUCAGGGCCGUUUUCUUCACCAUCAUGUAUCACUUCCUGCCGGAAUCCAAGUUAAAAUACAUGCUCUCCAUUGGUCUUCAAUGCAGCUGGGUUCUGCACGGUCCUCAACAGAGGAUUGAGCAUCA
B8: chr5:67446008:67446009:+_ENSMUSG00000037736_ENSMUST00000038188|mus_hu|motif|central (ssRNA)
RNA: GGGAGUUCUACAGUCCGACGAUCUACCUCCAAAGGUAAGUAACACAAAUGUUUCAGGAUUACAGUAUAUAUUAUCAAACGGGUGUCUUUGCAUUAAAAACAAAUUAUAGCUCAGAGAUAGAGCUUGCUGUGAUGUUUAGUUUCCAACAGAGGAUUGAGCAUCA
B9: chr1:220276048:220276049:+_ENSG00000067704_ENST00000302637|hu_hu|hu_hu_hu_mus_True|38_48 (ssRNA)
RNA: GGGAGUUCUACAGUCCGACGAUCGCAAAUUGCCUGGUUGGCGGGAAUUGUCCAAGGCUGGGUGGUCCAAACUAAAACGCUAACAGGAGAUGAACCAUCUAUAAGAGACUCCAACUUCGGAGGAGGUCUCAGGAGGGGGAAUCUCAACAGAGGAUUGAGCAUCA
B10: chr17:74699132:74699133:-_ENSMUSG00000024067_ENSMUST00000112571|perfect_dup|motif|central (ssRNA)
RNA: GGGAGUUCUACAGUCCGACGAUCCCCAUUAAGUCAGUUUCGAUCUUCAAACUGUGCCUUGUUUUUUAAAAGAUAAGAUGCGGGAAAUUCAAUGGGAUUUGGUGGUCUUUCCUUUGCAAGCACAGCAAGUCCCUGUAAUAAGAUCAACAGAGGAUUGAGCAUCA
B11: chr9:66794652:66794653:+_ENSMUSG00000036781_ENSMUST00000040917|mus_mus|FALSE|FALSE (ssRNA)
RNA: GGGAGUUCUACAGUCCGACGAUCCUGAACCAGCCGUUUCUUCUUAUGUUUUUUCUUCUCCUCCUCCAAGGAAGGGUGUAACAGAUCUCUAGCCAGGGGCAUGGUGACGGCUCCGCAAGCGCGGCCGCUCCAGGUCGCCGAGACCAACAGAGGAUUGAGCAUCA
B12: 99513462_99515842_1760_3pUTR_ENSMUSG00000041685_ENSMUST00000040340|mouse|control|control (ssRNA)
RNA: GGGAGUUCUACAGUCCGACGAUCGUUGGAAGUUACAGGUGGGCUGAAUGGCCUGGGUAUUUCAUUGAUCCCACUCAGUUUUCCUGAAGCAAGCUUUGGUCUGGAAGCAGGCCUUGGAGGUGGAACAAGGGUGCCUAAAGAGAGCAACAGAGGAUUGAGCAUCA
B13: chr9:95013113:95013114:-_ENSG00000196305_ENST00000443024|hu_hu|hu_hu_hu_mus_False|28_78 (ssRNA)
RNA: GGGAGUUCUACAGUCCGACGAUCCUCAGUCAGAAAGGGCGUGUAAGGGGCCAUCAGUCUGCAAAGAGAAAGCAGGACACUGAACAGUGUCUCCAGAGCCAUGACACAAUCCUCCAUCCCACUCUCACCCUUUAACCUCCUCCUCAACAGAGGAUUGAGCAUCA
B14: chr2:9570881:9570882:+_ENSG00000119203_ENST00000238112|hu_mus|hu_hu_hu_mus_False|48_58 (ssRNA)
RNA: GGGAGUUCUACAGUCCGACGAUCACUUGUCUUCUGAAGGAACCAGGGCAGGGCUCCACAGUGAUCCAAAUGGAAAUGACUAAUUAAUAGGAGAUCAAUCUCAGCUGGGUCGAUAAGGUCAAUGUAAGGAAGGGCAUCCAUUCCCAACAGAGGAUUGAGCAUCA
B15: chr19:8913615:8913616:-_ENSMUSG00000071658_ENSMUST00000096259|mus_hu|mus_mus_mus_hu_False|1_88 (ssRNA)
RNA: GGGAGUUCUACAGUCCGACGAUCAGGGUACCAAAACCUUCUGCCUGAGAUAGGUGCCCCACCCAGUAGGGAGUUGCAGCUGAAAGUAUCUGAUGCAGAAGCAGUGACUAUACGAAAGGAGGCCCCUGGGGAGGGCCCGAGAUCCAACAGAGGAUUGAGCAUCA
B16: chr4:136884974:136884975:-_ENSMUSG00000006699_ENSMUST00000030417|mus_mus|motif|central (ssRNA)
RNA: GGGAGUUCUACAGUCCGACGAUCCACCCACUUUUCUUUCACAUUUUCAAAUGAGGAUGGAGAGACCACUGAGAAACAUACGGGAAAAACAUCUGUCUGUGGAUAACUUAGCGGUCGUAGUCUGUCAUAAUCCUCUUGCCCUGCCAACAGAGGAUUGAGCAUCA
B17: chr11:50195847:50195848:+_ENSMUSG00000007850_ENSMUST00000123371|mus_mus|FALSE|FALSE (ssRNA)
RNA: GGGAGUUCUACAGUCCGACGAUCCCAGAUUUCUUACAUUUAUUUGUAUAGGCAAUGACCAGAAAAUUCACUCAAAAGACUAUUUAAACUUUAUAGAAAAAAAGAAAAUAAACUCCUCUGAGGCAGAGCCCAGCCUUAGAGGCACAACAGAGGAUUGAGCAUCA
B18: chr10:59467614:59467615:+_ENSMUSG00000044475_ENSMUST00000050516|mus_mus|motif|central (ssRNA)
RNA: GGGAGUUCUACAGUCCGACGAUCAUAGAAAUCCUCGUCUUCUUCAUGUUGGUACUGUUUCUCCUGGAUGGGAUUCUUUCGGUAAUUCCGUCCAUCGAACGUUACAAUCUGUGGGCGUAGAACAUCCAUGACAAAUGACGUUCCCAACAGAGGAUUGAGCAUCA
B19: chr7:150915252:150915253:-_ENSG00000033050_ENST00000287844|hu_hu|motif|central (ssRNA)
RNA: GGGAGUUCUACAGUCCGACGAUCCUUCCCUGCUCCAUUGGGCCCUACCAGAGCCACUCGUGUGUCAAGGUCAAUUCCAAAUUCGGGAUUAUUGUAGAUGCAAGGCCCAUCUUUUGUAUACUUGAAGCUCACAUUUUGCACCAUCAACAGAGGAUUGAGCAUCA
B20: chr10:112362630:112362631:-_ENSMUSG00000074748_ENSMUST00000099276|mus_hu|motif|central (ssRNA)
RNA: GGGAGUUCUACAGUCCGACGAUCAUGGACUACUUAUGCAAAAAUAAAAAUCUCCAAAACAAAGGACAGUGGUGAGCUUCACGGCCCUCCCCCGAUGAUCCCAGCAUGCGAUAAUGCCAGGCAGUGGUCCCUGGGCAUGCGAUGCAACAGAGGAUUGAGCAUCA
B21: chr11:51804959:51804960:-_ENSMUSG00000020390_ENSMUST00000020657|perfect_dup|FALSE|FALSE (ssRNA)
RNA: GGGAGUUCUACAGUCCGACGAUCCAUUUUGGAUAAAAACCUAACGGUUGGUGGUUUAUUUGGAUAUUCUUCAGAAAAUUCUAUUACUAGUUUAAAAGUACCAUCUUCAAAGGGUGUCCCUUCUGGUCCAAAUAUAACUGCAUUCAACAGAGGAUUGAGCAUCA
B22: chr2:166765161:166765162:+_ENSMUSG00000002718_ENSMUST00000002790|mus_mus|motif|central (ssRNA)
RNA: GGGAGUUCUACAGUCCGACGAUCAGACAAGCAUAUUGCUUCAAACAUGUAGUGAUUGAAAUGAGGUUUACUGGGAUUCUUACGGACAGCCAGCAGCUUCUGUGUGAGCUGCGUGAUGAGAGUGGGGAUAUAGGGGAUGAUGGCCAACAGAGGAUUGAGCAUCA

The experiment deals with T1, UNK ZnF1-3. As to the kind of experiment: nsRBNS (natural sequence RNA bind-n-seq); RBNS binding buffer (assumed for nsRBNS): 25 mM Tris pH 7.5, 150 mM KCl, 3 mM MgCl2, 0.01% Triton X-100, 500 ug/ml BSA, 20 U/ml SUPERase-In, 4 C; UNK is unkempt and MSI1 is Musashi-1; names of the RNAs are library labels; protein concentration not given here; high values mean tight binding.
B1: the binding signal came out at 0.93 enrichment R.

For the molecule B2, the binding signal was found to be 0.483 enrichment R. As for B3, the figure is 0.695 enrichment R; as for B4, 0.801 enrichment R; as for B5, 0.584 enrichment R.

Take B6: the binding signal was found to be 2.4 enrichment R. As for B7, the figure is 0.554 enrichment R. In turn, B8 came in with a binding signal of 0.937 enrichment R. Regarding B9, the binding signal turned out to be 1.44 enrichment R. As for B10, the figure is 0.979 enrichment R. As for B11, the figure is 0.951 enrichment R; as for B12, 1.49 enrichment R; as for B13, 1.24 enrichment R. To B14 belongs 1.55 enrichment R; to B15, 1.44 enrichment R.

The molecule B16 registered a binding signal of 1.38 enrichment R.

For B17, the binding signal is 2.96 enrichment R. For B18, the binding signal amounted to 0.369 enrichment R. B19: the binding signal stood at 0.887 enrichment R.

Molecule B20 returned a binding signal of 1.11 enrichment R.

B21 came in with a binding signal of 0.664 enrichment R. For the molecule B22, the binding signal stood at 1.49 enrichment R.
